According to patent US20240131045A1, “METHODS FOR TREATMENT OF VIRAL INFECTIONS” (priority 2022, published 2024):

Assays:
SARS-CoV-2 [1] = test: Efficacy in SARS-CoV-2-infected African green monkeys (AGM); details: SARS-CoV-2-infected AGM, 60 mg/kg QD, 4 or 5 days
SARS-CoV-2 [2] = test: Efficacy in SARS-CoV-2-infected ferrets; details: 20 mg/kg QD, 4 or 5 days
SARS-CoV-2 [3] = test: Efficacy in SARS-CoV-2-infected mice; details: 10 mg/kg BID, 4 or 5 days

Measured: infectious virus titers in lungs and genomic RNA compared with vehicle-treated animals

CC(C)C(=O)OC[C@H]1O[C@@](C#N)(c2ccc3c(N)ncnn23)[C@H](O)[C@@H]1O [compound 16, obeldesivir]
significant reduction: all assays above
